The campaign covered roughly 52,000 compounds. About 1,700 (3.3%) were called active. Rule as the data show it: active = survival mostly below about 52% (no sharp cut-off); inactive = mostly above about 56%. The list shows a part of the results.

For the experiment, the system named is Wild type. The experiment can be described thus: growth inhibition of S. aureus wild type versus tarO mutant, primary screen, teichoic acid synthesis inhibitors, RN4220, OD600 (AID 463173). As to conditions: S. aureus RN4220 wild type/DeltatarO growth, OD600, 18 h, active compounds read low, screened at 18.75 µg/mL (by protocol).
For `CCC1Oc2ccc(C)cc2N(CC(=O)NCc2ccc(F)cc2)C1=O` (stereo not given), the survival was inactive: 82%.

As for `O=C(Nc1cccc(Cl)c1)C(Cc1ccccc1)n1cccc1` (stereo not given), the survival is active: 8%. As for `CCOc1ccc(C2c3c(-c4ccccc4O)n[nH]c3C(=O)N2Cc2cccnc2)cc1OC` (stereo not given), the survival was inactive: 89%.

On to `CC(C)c1nn2c(=O)cc(COC(=O)c3cccc(NC(=O)c4ccccc4F)c3)nc2s1`, for which the survival is inactive: 73%.

For the compound `COc1cccc(CNC(=O)Cn2c(=O)cc(C(F)(F)F)c3c(C)nn(C)c32)c1OC`, the survival is inactive: 73%.

Take `O=C(NCCS(=O)(=O)N1CCN(c2ccccc2F)CC1)c1ccccc1C(F)(F)F`: the survival was inactive: 126%. The value for `CCN(CC)S(=O)(=O)c1ccc(Nc2ccc(-c3ccc4c(c3)OCCO4)nn2)cc1` was inactive: 105%; that for `CCOC(=O)c1ccc2c(c1)sc1nc(-c3ccc(OCC)cc3)cn12` was inactive: 54%. As for `CCN(CC)CCCNC(=O)c1c2c(nc3ccccc13)C(=O)N(C1CCCCC1)C2`, the survival is inactive: 69%. Turning to `Fc1ccc(F)c(Nc2c3c(nc4ccc(Cl)cc24)CCC3)c1`, the survival is active: -1%. The value for `COc1ccc(N2C(=O)C(CC(=O)Nc3ccc(Cl)cc3)N(Cc3ccc4c(c3)OCO4)C2=O)cc1` (stereo not given) was inactive: 82%. With `Cc1cccc2sc(N(Cc3cccnc3)C(=O)CCS(=O)(=O)c3ccccc3)nc12`, the survival is inactive: 82%.

Turning to `COc1ccc(NC(=O)CCc2nc3cccnc3n2-c2ccccc2)c(OC)c1`, the survival was inactive: 68%. In the case of `NC(=O)CSc1nc(-c2ccccc2)nc2c1CCCC2`, the survival was inactive: 97%.

Turning to `CS(=O)(=O)N(CC(=O)N1CCOCC1)c1cccc2ccccc12`, the survival was inactive: 101%.

As to `CCOC(=O)c1c(NC(=O)c2cc(=O)c3cc(Cl)ccc3o2)sc(C)c1C`, the survival was inactive: 85%. The result for `COc1cc(C(=O)Nc2ccccc2OCc2cc(=O)n3c(C)csc3n2)cc(OC)c1OC` reads inactive: 85%; that for `CNCC(=O)NC(c1ccccc1)c1ccccc1`, inactive: 105%. For `Cc1cccc(-c2nc(SCc3cc(=O)c4cccc(F)c4[nH]3)n[nH]2)c1`, the survival was inactive: 70%.

For the compound `Cc1ccc(C)c(N2CCN(C(=O)CN3CCSc4ccccc43)CC2)c1`, the survival was inactive: 67%.

As for `O=S(=O)(Nc1ccccn1)c1cccs1`, the survival was inactive: 104%. For `Cc1ccc(NCc2nnc(SCC(=O)c3ccc(C)cc3)n2C)cc1`, the survival is inactive: 100%. The result for `CCN1CCN(C(c2ccc(C)cc2)c2sc3nc(-c4ccco4)nn3c2O)CC1` (stereo not given) reads inactive: 60%; that for `O=C1Nc2ccc(S(=O)(=O)N3CCCC3)c3cccc1c23`, inactive: 105%.

For the compound `COCCn1c(=N)c(C(=O)NCC2CCCO2)cc2c(=O)n3ccccc3nc21` (stereo not given), the survival was inactive: 81%.

The values above are taken from PubChem BioAssay AID463173 (ICCB-Longwood Screening Facility, Harvard Medical School, 2010).
